Some of the results follow.
What was measured:
HSkMC = human skeletal muscle cells; assay: cytotoxicity call (relative viability < 0.9); details: 10 µM
HepG2 = assay: cytotoxicity call (relative viability < 0.9); details: 10 µM
S. aureus RN4220 = assay: growth inhibition call (relative growth <= 0.2); details: 50 µM

| SMILES | cytotoxicity call (HSkMC) | cytotoxicity call (HepG2) | growth inhibition call (S. aureus RN4220) |
| --- | --- | --- | --- |
| C[C@@H]1CCCCO[C@H](CN(C)Cc2ccc(C(F)(F)F)cc2)[C@@H](C)CN([C@@H](C)CO)C(=O)c2cc(NC(=O)CCCN(C)C)ccc2O1 | inactive | active | inactive |
| C[C@@H]1CN([C@@H](C)CO)C(=O)c2cc(NC(=O)c3ccccc3)ccc2O[C@@H](C)CCCCO[C@@H]1CN(C)C(=O)CCC(F)(F)F | inactive | inactive | inactive |
| C[C@@H]1CCCCO[C@@H](CN(C)C(=O)c2ccncc2)[C@@H](C)CN([C@H](C)CO)C(=O)c2cc(NS(=O)(=O)c3ccc(Cl)cc3)ccc2O1 | inactive | inactive | inactive |
| O=C(Nc1nn[nH]n1)C1CCCCC1 | inactive | inactive | inactive |
| C[C@@H]1CN([C@@H](C)CO)C(=O)c2c(c3ccccc3n2C)-c2ccccc2CO[C@@H]1CN(C)Cc1ccc(Oc2ccccc2)cc1 | inactive | inactive | inactive |
| COc1cccc(C#Cc2ccc3c(c2)O[C@@H](CN(C)C(=O)c2ccccn2)[C@@H](C)CN([C@@H](C)CO)S3(=O)=O)c1 | inactive | inactive | inactive |
| Cc1noc(C)c1NC(=O)N(C)C[C@@H]1Oc2ccc(NC(=O)Nc3cccc4ccccc34)cc2CC(=O)N([C@H](C)CO)C[C@@H]1C | inactive | inactive | inactive |
| Cc1ccc(C)c(Cc2cc(Cl)ccc2Cl)c1 | inactive | inactive | inactive |
| COc1ccc2c3c(n(c2c1)C)[C@@H](CO)N(C[C@]13CCN(CC1)S(=O)(=O)c1cn(cn1)C)C(=O)Nc1ccc(cc1)F | inactive | inactive | inactive |

— the antibiotic and cytotoxicity screens of Wong et al. (2023)
